Some of the results follow.
Legend:
Assay in all cases: glycan array binding signal (z-score within array); higher = stronger binding
Details in all cases: glycan notation: IUPAC condensed, linker removed; mutation: E227A
[1] = target: Fuc(a1-2)[GalNAc(b1-3)]Gal
In short: (§1)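 The Consortium for Functional Glycomics database supplied 3228 glycan arrays, of which those lacking an available protein sequence were dropped. The binding signal, a within-array Z-score, was averaged across arrays of the same protein sequence and across linkers. Negative scores can be read as non-binding.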

[2] = target: Fuc(a1-3)GlcNAc
In short: as §1

[3] = target: Fuc(a1-3)[Gal(b1-4)]Glc6S
In short: as §1

[4] = target: Fuc(a1-3)[Gal(b1-4)]GlcNAc
In short: as §1

[5] = target: Fuc(a1-3)[Gal(b1-4)]GlcNAc(b1-2)Man
In short: as §1

[6] = target: Fuc(a1-3)[Gal(b1-4)]GlcNAc(b1-2)Man(a1-3)[Fuc(a1-3)[Gal(b1-4)]GlcNAc(b1-2)Man(a1-6)]Man(b1-4)GlcNAc(b1-4)GlcNAc
In short: as §1

[7] = target: Fuc(a1-3)[Gal(b1-4)]GlcNAc(b1-2)Man(a1-3)[Fuc(a1-3)[Gal(b1-4)]GlcNAc(b1-2)Man(a1-6)]Man(b1-4)GlcNAc(b1-4)[Fuc(a1-6)]GlcNAc
In short: as §1

[8] = target: Fuc(a1-3)[Gal(b1-4)]GlcNAc(b1-3)Gal(b1-3)[Fuc(a1-4)]GlcNAc
In short: as §1

[9] = target: Fuc(a1-3)[Gal(b1-4)]GlcNAc(b1-3)Gal(b1-4)[Fuc(a1-3)]GlcNAc
In short: as §1

[10] = target: Fuc(a1-3)[Gal(b1-4)]GlcNAc(b1-3)Gal(b1-4)[Fuc(a1-3)]GlcNAc(b1-3)Gal(b1-4)[Fuc(a1-3)]GlcNAc
In short: as §1

[11] = target: Fuc(a1-3)[Gal(b1-4)]GlcNAc(b1-3)GalNAc
In short: as §1

[12] = target: Fuc(a1-3)[Gal(b1-4)]GlcNAc(b1-6)GalNAc
In short: as §1

[13] = target: Fuc(a1-3)[Gal(b1-4)]GlcNAc(b1-6)[Gal(b1-3)GlcNAc(b1-3)]Gal(b1-4)Glc
In short: as §1

[14] = target: Fuc(a1-3)[Gal(b1-4)]GlcNAc6S
In short: as §1

[15] = target: Fuc(a1-3)[Gal3S(b1-4)]Glc
In short: as §1

[16] = target: Fuc(a1-3)[Gal3S(b1-4)]GlcNAc
In short: as §1

[17] = target: Fuc(a1-3)[Gal3S(b1-4)]GlcNAc6S
In short: as §1

[18] = target: Fuc(a1-3)[GalNAc(b1-4)]GlcNAc
In short: as §1

[19] = target: Fuc(a1-3)[GalNAc(b1-4)]GlcNAc6S
In short: as §1

[20] = target: Fuc(a1-4)GlcNAc
In short: as §1

[21] = target: Fuc(b1-3)GlcNAc
In short: as §1

[22] = target: Gal(a1-2)Gal
In short: as §1

[23] = target: Gal(a1-3)Gal
In short: as §1

[24] = target: Gal(a1-3)Gal(b1-3)GlcNAc
In short: as §1

[25] = target: Gal(a1-3)Gal(b1-3)GlcNAc(b1-2)Man
In short: as §1

[26] = target: Gal(a1-3)Gal(b1-3)GlcNAc(b1-2)Man(a1-3)[Gal(a1-3)Gal(b1-3)GlcNAc(b1-2)Man(a1-6)]Man(b1-4)GlcNAc(b1-4)GlcNAc
In short: as §1

[27] = target: Gal(a1-3)Gal(b1-3)GlcNAc(b1-3)GalNAc
In short: as §1

[28] = target: Gal(a1-3)Gal(b1-3)GlcNAc(b1-6)GalNAc
In short: as §1

[29] = target: Gal(a1-3)Gal(b1-3)[Fuc(a1-4)]GlcNAc(b1-2)Man(a1-3)[Gal(a1-3)Gal(b1-3)[Fuc(a1-4)]GlcNAc(b1-2)Man(a1-6)]Man(b1-4)GlcNAc(b1-4)GlcNAc
In short: as §1

[30] = target: Gal(a1-3)Gal(b1-4)Glc
In short: as §1

B1: Epa1-NP-mutant-E227A (Candida glabrata), Q6VBJ0 (protein)
chain: MILNPALFLNKCVCIYTTLILLLLTNGGYATSSNDISLASKDPTTFPLGCSPDITTPKKGLSMELYSYDFRKKGSYPCWDAAYLDPNYPRTGYKSHRLLAKVDGVTGNINFYYHATKGCTPQLGHLPASYNYPKPLTMTNFTMLLYGYFRPKVTGFHTFTISADDLLFVNFGAGNAFDCCRRDSSADHFGNYQAYAIWGSKTAKDELTVHLDAGVYYPIRLFYNNRAYDGALSFTFKTESNENTVSDFSEYFFSLDDTEEGCPGLISYDSSCASVKTSKIIGIDYHTETPNENLVPITKTIYHLGIPCTGTTTTPLCGSGFYDPLANKCVTINTSSTSSVTKTTSHTTSKEVSFHSSISSQKTLIPKSIPSPYGPIKSQSIPTEMETSSEISSSEYAFSDVISTPSHSPYTKKHSSLNSSSYTSTVIHSLTSYSISQGIFSTSLSEQNITSKSSTDKFSTATSMSNNITQSSIIISQFSTNNENYTTTSMHTSSDKISTETLNNSISTTTSILFSNSSTILKNNTTIISSDKDTHYHPVNPTIVCSTNKTEIICASITQPSISNSNNHWSSSVLKFNSTTVRSTLPSSAGSNETSINVPFSSSTESNTSTSSTSTSNSKMVRSTLPSSAGSNETSISVPFSSSTESNTSTSSTSTSNSKMVRSTLPSSAGSNETSINVPFSSSTESNTSTSSTSTSNSKTVRSTPFSSAGIIMTSLSQRNNKSASSYASSNSKCYNTADSCRKVHSTPSYLLTSSYTSEGVDYDCSLVSTKLKINDTNCVNNKHTTKSCLKTSVTTTIPTLEIKTARKSSSNTIGLHSYPTSSPNKSISSAPIIGYISSFKTIKTASPSYQTSDLTTITTITSLNNPGSTAVENTHESNDKSRKTSSNDISSKHSVIKETKDAVESSNKSHQTNTLKCSSIIIASSSHNSYESLGGTTLTLTLSKVYSPQNNDTLPFLEISEVNPSRTVLPESSKMMQYLTSTEERNKTARNTIATNIVSISTFHFEGEGNAIRMGYTQLLLMLIGIIVMNIGT
- glycan array binding signal (z-score) [1]: -0.161
- glycan array binding signal (z-score) [2]: -0.218
- glycan array binding signal (z-score) [3]: -0.176
- glycan array binding signal (z-score) [4]: -0.173
- glycan array binding signal (z-score) [5]: -0.202
- glycan array binding signal (z-score) [6]: -0.212
- glycan array binding signal (z-score) [7]: -0.194
- glycan array binding signal (z-score) [8]: -0.199
- glycan array binding signal (z-score) [9]: -0.175
- glycan array binding signal (z-score) [10]: -0.189
- glycan array binding signal (z-score) [11]: -0.162
- glycan array binding signal (z-score) [12]: -0.198
- glycan array binding signal (z-score) [13]: 0.173
- glycan array binding signal (z-score) [14]: -0.143
- glycan array binding signal (z-score) [15]: -0.172
- glycan array binding signal (z-score) [16]: -0.186
- glycan array binding signal (z-score) [17]: -0.151
- glycan array binding signal (z-score) [18]: -0.184
- glycan array binding signal (z-score) [19]: -0.199
- glycan array binding signal (z-score) [20]: -0.192
- glycan array binding signal (z-score) [21]: -0.186
- glycan array binding signal (z-score) [22]: -0.205
- glycan array binding signal (z-score) [23]: -0.177
- glycan array binding signal (z-score) [24]: -0.179
- glycan array binding signal (z-score) [25]: -0.219
- glycan array binding signal (z-score) [26]: -0.142
- glycan array binding signal (z-score) [27]: -0.184
- glycan array binding signal (z-score) [28]: -0.185
- glycan array binding signal (z-score) [29]: -0.138
- glycan array binding signal (z-score) [30]: -0.196

Reference: the supplement of paper PMC8728848
